Measured values published in the supplement of paper PMC3334620.
The full ranking holds about 33,000 sequences; the median of “E-score (-0.5 to 0.5)” is about -0.011, and the highest 2% start at about 0.28. Some of the results follow.

The sequences below were run against T1, Gcr1 (UniProt P07261) (assay: PBM E-score (8-mer binding enrichment) (E-score (-0.5 to 0.5)); higher = stronger / more preferred TF binding; most listed sequences are background and not binding sites). Settings: protein concentration: 100 nM; construct: GST-full length.
T1 sequence: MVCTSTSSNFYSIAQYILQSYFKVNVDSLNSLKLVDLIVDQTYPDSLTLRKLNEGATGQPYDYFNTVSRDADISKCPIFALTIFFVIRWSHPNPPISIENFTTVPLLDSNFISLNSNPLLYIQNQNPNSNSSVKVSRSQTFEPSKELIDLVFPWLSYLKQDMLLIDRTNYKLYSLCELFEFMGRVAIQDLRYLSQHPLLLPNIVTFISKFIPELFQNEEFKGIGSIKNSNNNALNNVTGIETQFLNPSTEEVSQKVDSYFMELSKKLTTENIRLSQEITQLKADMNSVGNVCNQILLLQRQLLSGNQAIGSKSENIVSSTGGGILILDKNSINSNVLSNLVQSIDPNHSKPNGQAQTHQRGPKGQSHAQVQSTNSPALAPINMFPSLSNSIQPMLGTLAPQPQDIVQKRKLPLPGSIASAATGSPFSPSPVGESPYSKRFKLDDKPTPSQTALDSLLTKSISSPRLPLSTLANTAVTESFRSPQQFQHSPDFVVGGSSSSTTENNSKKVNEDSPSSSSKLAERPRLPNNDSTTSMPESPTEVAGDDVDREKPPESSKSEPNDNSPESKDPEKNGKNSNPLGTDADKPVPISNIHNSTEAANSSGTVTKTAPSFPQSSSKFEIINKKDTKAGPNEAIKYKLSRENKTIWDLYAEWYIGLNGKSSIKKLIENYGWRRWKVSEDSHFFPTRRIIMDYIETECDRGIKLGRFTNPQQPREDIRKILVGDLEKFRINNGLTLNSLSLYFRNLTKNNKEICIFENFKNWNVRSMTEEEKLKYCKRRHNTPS
Method in brief: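 Universal all-10-mer Agilent arrays, double-stranded by primer extension on fresh or once-stripped slides, were probed with about 100-200 nM GST-tagged yeast transcription factors made by PURExpress. Fluorescent anti-GST detected bound protein, and masliner normalised the scans. E-scores from the Universal PBM Analysis Suite were given to each ungapped eight-base word pooled with its reverse complement.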

Sequence	PBM E-score
AGGTGGAG	-0.121
GAAACAAA	-0.0788
CTAGCTAG	-0.157
CGATGCGA	0.0626
AACCGCGC	-0.218
GAAGTTCA	0.129
AACCAGGT	0.0282
ACTTTCGC	0.0656
AGGGCCGC	-0.136
AGCTCTGA	-0.184
AATAGCAT	-0.00985
AGCGACCT	0.164
GCTAGTCC	-0.0924
AATTCTCA	0.0164
AAAGAAAG	-0.023
AGACGACC	0.00881
GAATTACC	0.0718
GGCTGCCC	0.272
GTACGGAC	-0.176
ACGAGCGG	-0.00855
AGGAGCGC	0.0762
GGCTGATA	-0.108
CCGGTTGA	0.0186
TGCAAAAA	0.156
GGGGATTA	0.0228

Sequence	PBM E-score
ATCGTGGC	-0.103
ATTTCTCG	0.149
CGAGTATC	0.0473
ATCCCGGA	0.08
CAACCAGC	-0.0265
ACAGGGGG	-0.0522
AAATGGAT	-0.0627
GCGCCAGC	-0.0858
CACAGTCA	-0.245
ACGTACCC	0.0373
CATTTACC	0.00933
AGCATGAG	-0.0444
CGTTTCAG	0.0761
GTGTGGGA	0.0285
CGAAAACG	0.0851
CATTCATC	-0.213
TCAGCGGA	-0.0105
CGTCAAAG	-0.0696
CCTTATAA	-0.029
AATATGTG	0.234
AATGATCT	0.017
GCCTTATA	0.117
CGGATGGA	0.0467
ACAGTACC	-0.206
ATCGAACC	-0.0413

Sequence	PBM E-score
ACAACTCG	0.0972
AGGATTAT	-0.099
AGCATACC	-0.0543
CCAAAAGC	-0.101
CAGGCATC	0.211
ACCGCGCG	-0.0975
TATCCTGA	0.156
ATAAGACG	0.192
ACAACTGG	0.169
TTCTAGAA	0.239
ACGGGTCC	0.151
ATTACCAG	0.0353
ACATCTCA	-0.0704
CCCTCCAC	-0.286
CAGCAGGG	-0.0402
CGTCACAC	-0.147
CGTGACTC	-0.205
ATCAAAAA	0.216
GATATCCA	-0.0382
TACAAAAA	0.0752
AACATTAG	0.0386
GACGTTGA	-0.133
AGCAGGCG	-0.085
CGGGCCGC	0.0123
GCACAGGC	-0.165

Sequence	PBM E-score
CAGACGGC	-0.112
CTCACCAG	-0.0314
ACCAAGTC	0.0379
TGCCGCAA	0.0502
CGGTGCAA	-0.117
ACGCATGA	-0.236
CAATTCAC	-0.262
TGAGCACA	-0.235
ACGTACCT	-0.278
CCTCACGC	0.156
AATTCCGT	0.0556
CCCCGACA	-0.229
AGAAACTA	0.0796
CTCAGCTA	-0.162
AGGAACAT	-0.151
TATGAGAA	0.13
CTAACTGA	-0.0279
AGCTTTTA	0.0211
CGGGCTAC	0.217
CAAGTAGC	0.00316
ATAATTCG	-0.00046
CGTCCACG	-0.0949
GATCAATA	-0.177
CTCTGGGA	0.0982
AGTGGGCA	0.0993

Sequence	PBM E-score
AGTCCACC	-0.261
AAGAAGAG	0.237
GTGGTCAA	-0.0869
GAAATACA	0.2
CGAGATAC	0.171
ACGCGAAC	0.0396
GCGACGCA	-0.0777
TGTACTAA	-0.0353
ACCATGGA	-0.0985
CGTGTCTA	-0.0143
GCGTGGAC	-0.0157
GCAAATAC	0.0493
AATGCTCT	-0.112
CCCTCCTA	-0.0494
ATATCGAG	-0.0166
ACGAAGCA	-0.12
ATTATCGA	0.0528
GGGGTCGA	-0.11
CATCATAC	0.173
GACTGAGC	-0.0985
ACAGTTGG	-0.0514
AAGCATAG	-0.301
AATGTTTG	-0.105
GCCTAGTA	0.161
AGAGTTAC	-0.161

Sequence	PBM E-score
CATTATAA	0.128
GATGGAAC	-0.0256
AAAAGAGT	0.0747
AGAGAGGC	0.0259
CAGCCAGA	0.0488
GAAAGCTC	-0.314
CGTATGCA	-0.105
CCCATACG	0.14
ACCGATTG	-0.157
TAGACAGA	0.0147
AACATGCT	-0.122
GTAACGAA	-0.0989
CAATATTG	-0.225
AGATTCAA	-0.107
CGGGGCCC	0.219
AATTGTCA	0.0189
TGCTCAAA	0.0724
CCGCGGTA	0.167
CAACGAGA	0.121
GCTCTTAC	-0.298
CACCACGC	-0.131
CAACGAGG	-0.141
CATAAGCC	-0.217
CTGGCATA	0.0454
TCTAGTCA	0.0316

Sequence	PBM E-score
GAGGGTCA	-0.243
GTACATGA	0.0783
AAGAAATT	0.0237
GACCTACA	-0.065
CCAATACG	-0.0325
GACACGGA	3e-05
AGAACGCT	-0.217
AAGCGTGG	-0.0647
GATAGGAA	0.208
GGATTACC	-0.127
TGTGACAA	-0.161
ACTTCAGC	0.0397
AGGATCAG	-0.148
GAGATACA	0.101
CTGCAATA	0.133
TTCCAGAA	0.287
CTTACCCA	0.0383
CATTGTAC	-0.1
CGTATCAC	0.0619
AAAACGGA	0.0988
ATCCTAAG	0.138
ACAGCAAC	0.106
